# Measured values as given in PubChem BioAssay AID1479 (National Center for Advancing Translational Sciences (NCATS), 2009).
# Values joined by “and” are separate entries in the source; they are usually repeats but may differ in a detail not shown here. Identical values can stand only once. Among all 280,000 compounds or so, about 820 (0.29%) were called active. The inconclusive results got no clear call from the source; some entries with a clear call stand among them for comparison. Calls come from the whole dose curve; as a rule, active = well fitted curve in either direction with a large enough effect; inconclusive = small, poorly fitted or top-dose-only effect; inactive = flat fitted curve, though single readings scatter. Where the call is inconclusive, the potency comes from a doubtful curve fit.
# Assay: Total Fluorescence Counterscreen for Inhibitors of the Interaction of Thyroid Hormone Receptor and Steroid Receptor Coregulator 2
# Conditions: TRb/SRC2 Texas Red total fluorescence interference; series mostly up to 106 µM; fluorescence change, negative = quenching: at the top concentration
# Outline: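 Human TRβ ligand-binding domain (0.6 uM) and Texas Red SRC2 peptide (20 nM) in Tris buffer with 1 uM T3 and 5% DMSO were incubated with pinned compound for 5 hr at ambient temperature. Total fluorescence was computed as S + 2P (555/632 nm).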
# % is set by controls: 0 for no effect and ±100 for the full control effect; potency is the fitted concentration of half-maximal effect; tags give direction and shape of the fitted curve or compound fluorescence and quenching.
Compound,Potency,"fluorescence change, negative = quenching"
COc1ccc(N2CCN(C(CNC(=O)C(=O)NCc3cccnc3)c3cccnc3)CC2)cc1 (stereo not drawn),active: 56.2 µM [quencher],
Cc1nnc(SCC(=O)N2CCOCC2)[nH]c1=O,"inconclusive: 56.2 µM [falling, partial curve, poor fit]",
Cc1cc(=O)n(C(C)C(=O)N2CCCc3ccccc32)c2c1c(C)nn2-c1ccccc1 (stereo not drawn),"inconclusive: 251 µM [falling, partial curve, poor fit]",
CCOc1ccc2nc3cc(N)ccc3c(N)c2c1,"inactive and inconclusive: 50.1 µM [quencher, partial curve]",
COC(=O)c1c(-c2cccs2)csc1NC(=O)c1cccc(Cl)c1,active: 1120 µM [quencher],
COC(=O)c1c(-c2cccs2)csc1NC(=O)c1ccc(Br)cc1,"inconclusive: 200 µM [quencher, partial curve]",
Cc1[nH]n(-c2ccccc2)c(=O)c1C(c1cc(Cl)ccc1O)c1c(C)[nH]n(-c2ccccc2)c1=O,"inconclusive: 50.1 µM [quencher, partial curve]",
CC(/C=N/n1cnnc1)=C\c1ccco1,,inactive: -6.9%
O=c1[nH]cnc2c1ncn2C1OC(CO)C(O)C1O (stereo not drawn),"inconclusive: 0.01 µM [falling, full curve, poor fit]",
CC(=O)Nc1cc(-c2nc3cc(Cl)ccc3o2)ccc1C,"inconclusive: 15.8 µM [quencher, full curve]",
CN(C)C1(CNC(=O)COc2ccc([N+](=O)[O-])cc2)CCCCC1,"inconclusive: 112 µM [falling, partial curve, poor fit]",
O=C(Nc1ccccc1)Oc1ccc[nH]c1=O,,inactive: 1.21%
CCOc1ccc(Oc2c(/C=N/NC(=O)C3CC3)c(C)nn2-c2ccccc2)cc1,inconclusive: 0.0006 µM,
O=C(c1cccs1)c1cn(CCOc2ccc(Cl)cc2)c2ccccc12,"inconclusive: 0.0063 µM [falling, full curve, poor fit]",
COc1ccc(S(=O)(=O)c2c(Nc3c(C)cccc3C)sc(C(=O)c3ccc(F)cc3)c2N)cc1,"inconclusive: 0.0126 µM [falling, full curve, poor fit]",
Cc1cccc(NC(=O)Cn2c(=O)n(Cc3ccccc3)c(=O)c3sc4ccccc4c32)c1,active: 25.1 µM [quencher],
Cc1ccc(Cl)cc1N1CCN(CCCNC(=O)Cn2ncc3c([nH]c4ccccc43)c2=O)CC1,"inconclusive: 31.6 µM [quencher, full curve]",
Nc1c(S(=O)(=O)O)cc(Nc2ccc(Cl)cc2)c2c1C(=O)c1ccccc1C2=O,"inconclusive: 79.4 µM [falling, single point]",
CCc1ccc(NC(=O)CCc2c(C)nc3nc(-c4cc(OC)cc(OC)c4)nn3c2C)cc1,"inconclusive: 0.02 µM [falling, full curve, poor fit]",
CCOC(=O)c1ccc(NCC(O)COc2ccccc2)cc1 (stereo not drawn),,inactive: 1.13%
CC1(C)CC(=O)C(C=Nc2ccc(N)cc2)=C(O)C1,,inactive: 15.6%
COc1ccc(Cc2nc(-c3ccc(-n4cccc4)cc3)no2)cc1,"inconclusive: 31.6 µM [rising, single point]",

Compound,Potency,"fluorescence change, negative = quenching"
Cc1cccc(C)c1OCC(=O)N(Cc1ccccc1F)C1CCS(=O)(=O)C1 (stereo not drawn),"inconclusive: 112 µM [falling, partial curve, poor fit]",
O=C1CCCC(O)=C1N=Nc1c(Cl)cc(C(F)(F)F)cc1Cl,active: 28.2 µM [fluorescent],
CN(C)c1cccc2c1c(NC(=O)c1ccc(F)cc1)nn2C,,inactive: 0.4%
CCOC(=O)CSc1nnc(CNc2ccc(Cl)cc2)n1Cc1ccccc1,,inactive: -5.08%
C=CCn1c(=O)c2c(nc(-c3ccc(S(=O)(=O)O)cc3)n2C)n(C)c1=O,"inconclusive: 0.001 µM [quencher, full curve]",
COc1ccc(NC(=O)C2CCN(C3=NS(=O)(=O)C(c4ccc(C)c(C)c4)=C3C)CC2)c(OC)c1,active: 224 µM [quencher],
Clc1ccc(-c2cc3ncc4c(n3n2)-c2ccccc2OC4)cc1,"inconclusive: 11.2 µM [falling, full curve, poor fit]",
Cc1noc(C(=O)Nc2c(C)n(C)n(-c3ccccc3)c2=O)c1Cl,,inactive: -1.88%
COC(=O)c1ccc(C2C(Oc3ccc(OC)cc3)C(=O)N2CCc2ccc(OC)c(OC)c2)cc1 (stereo not drawn),"inconclusive: 0.316 µM [falling, full curve, poor fit]",
CO[C@H]1C[C@@H]2C[C@H](O)C[C@@H](CC(=O)O[C@@H](/C=C\CC(C)C)C[C@@H]3CC[C@H](C)[C@@H](C1)O3)O2,"inconclusive: 31.6 µM [falling, partial curve, poor fit]",
N#C/C(=C\c1cccs1)C(=O)c1ccccc1Cl,,inactive: 0.754%
COCCCNC(=O)c1nn(C)c2c1CS(=O)(=O)c1ccccc1-2,active: 100 µM [quencher],
CC(=O)Nc1ccc(S(=O)(=O)N2CCN(c3nc(NC4CCCC4)c4ccccc4n3)CC2)cc1,,inactive: -1.62%
Cc1cc(O)ccc1N=Cc1c(C(F)(F)F)[nH][nH]c1=O,active: 31.6 µM [fluorescent],
O=C(CSc1ccc2nnc(-c3cccc(F)c3)n2n1)N1CCCc2ccccc21,"inconclusive: 5.01 µM [falling, full curve, poor fit]",
COC(=O)C1=C(C)NC(=O)NC1c1ccc(N2CCC(c3ccccc3)=N2)cc1 (stereo not drawn),"inconclusive: 70.8 µM [rising, single point]",
CCCCNC(=O)CCCCCNS(=O)(=O)c1ccc(Br)cc1,,inactive: -2%
CCOC(=O)c1ccc(CSc2nnc3cc(C)c4ccccc4n23)cc1,active: 1.41 µM [quencher],
O=C(CC12CC3CC(CC(C3)C1)C2)NCC(=O)OCc1cc(=O)oc2ccc3ccccc3c12,"inconclusive: 158 µM [falling, partial curve, poor fit]",
Cc1cc(C(=O)N/N=C/c2cc(N=Nc3ccccc3)ccc2O)n[nH]1,"inconclusive: 112 µM [falling, partial curve, poor fit]",
CCc1ccc(CN(C(=O)c2cc3ccccc3oc2=O)C2CCS(=O)(=O)C2)cc1 (stereo not drawn),"inconclusive: 0.0141 µM [falling, full curve, poor fit]",
